Over roughly 33,000 sequences, “E-score (-0.5 to 0.5)” has its median near -0.032; the highest 2% begin near 0.36. The list shows a part of the results.
biological target: T1, Sko1 (UniProt Q02100); test: PBM E-score (8-mer binding enrichment) (E-score (-0.5 to 0.5)); higher = stronger / more preferred TF binding; most listed sequences are background and not binding sites; settings: protein concentration: 200 nM; construct: GST-full length
T1 sequence: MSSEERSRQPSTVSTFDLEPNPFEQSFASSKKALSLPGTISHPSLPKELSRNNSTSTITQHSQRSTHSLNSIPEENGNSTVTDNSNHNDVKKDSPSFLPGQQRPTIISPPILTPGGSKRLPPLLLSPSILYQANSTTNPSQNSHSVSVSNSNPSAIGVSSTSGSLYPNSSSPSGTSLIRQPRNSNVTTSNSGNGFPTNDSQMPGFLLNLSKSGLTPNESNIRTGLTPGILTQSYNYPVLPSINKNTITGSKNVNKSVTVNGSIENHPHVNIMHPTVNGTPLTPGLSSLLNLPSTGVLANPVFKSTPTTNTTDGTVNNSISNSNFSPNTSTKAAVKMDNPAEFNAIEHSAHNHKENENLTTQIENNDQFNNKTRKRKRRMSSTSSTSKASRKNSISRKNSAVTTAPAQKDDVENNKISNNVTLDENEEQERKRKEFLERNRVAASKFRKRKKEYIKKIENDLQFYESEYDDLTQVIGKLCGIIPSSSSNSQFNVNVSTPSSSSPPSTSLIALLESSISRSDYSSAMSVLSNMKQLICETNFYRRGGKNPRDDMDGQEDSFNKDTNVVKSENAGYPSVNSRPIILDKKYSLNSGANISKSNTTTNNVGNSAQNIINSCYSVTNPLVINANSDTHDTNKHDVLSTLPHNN
How it was run: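 Using PURExpress in vitro transcription/translation, GST-tagged yeast transcription factors were made in full-length or DNA-binding-domain form. These were applied at about 100-200 nM to double-stranded universal all-10-mer Agilent arrays, and bound protein was detected with fluorescent anti-GST. Scans were normalised with masliner before the Universal PBM Analysis Suite assigned E-scores to ungapped eight-base words pooled with their reverse complements.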

Row | Sequence | PBM E-score
1 | AGACTTAA | 0.0309
2 | CGGGCTGA | -0.151
3 | CGGCGAAA | -0.153
4 | AATCTTAA | 0.071
5 | CGCCTGTA | -0.286
6 | ATCCGGAG | -0.107
7 | AAACAATG | 0.233
8 | AATAAATG | 0.186
9 | AGAAGTCG | -0.2
10 | CATGTCTA | -0.00401
11 | GTGGGCTA | -0.00458
12 | GTGGATGA | 0.0829
13 | CCCACCGG | -0.358
14 | ACATGCAT | 0.0832
15 | AAGCCGTC | -0.0334
16 | GAACCTGC | -0.159
17 | AGATTTAC | 0.096
18 | ACTGTCAT | 0.0228
19 | AAGAACAA | 0.231
20 | AAACAGGC | -0.138
21 | GGAGAGAA | -0.0614
22 | ATGGTACC | -0.214
23 | TGCACACA | 0.135
24 | CTTCGATC | -0.107
25 | CACAACGG | -0.136

Row | Sequence | PBM E-score
26 | CATGGCCG | -0.258
27 | CCTTGAGC | -0.191
28 | GATCCGTA | -0.0968
29 | ATGGAAGG | -0.191
30 | CAAGAATA | 0.0646
31 | ATCTACGC | 0.256
32 | TAAAAGAA | 0.184
33 | TGGTAGAA | -0.129
34 | CATACTGC | -0.138
35 | CCCTACCG | -0.116
36 | CAGGCGGG | -0.289
37 | AACAGTCA | -0.0508
38 | ACAGTCAT | -0.102
39 | ACCGCTCC | -0.213
40 | AGTGGCAC | -0.0955
41 | CGGTAACC | -0.155
42 | GTTCAAAC | 0.08
43 | ATGAAGAG | -0.125
44 | AAGTGAGG | -0.0716
45 | CTTCGAAA | 0.0519
46 | ATGACTCA | 0.209
47 | CCATGCCC | -0.369
48 | ATCTTCTC | 0.0221
49 | CTGCGCAG | -0.29
50 | CCTGGATC | -0.415

Row | Sequence | PBM E-score
51 | CTCACGCA | 0.28
52 | CGAACCTA | -0.138
53 | ACTTGTTA | 0.17
54 | ACCCGCAA | -0.171
55 | ATTATAAC | 0.134
56 | CTGGGCCA | -0.335
57 | GTGTTAGA | 0.143
58 | GCGACTGA | 0.034
59 | AGGAGTCG | -0.212
60 | CAACGATA | 0.126
61 | ATGCCAAC | 0.0459
62 | AAATCTAG | -0.12
63 | AGATCCGC | -0.118
64 | CAGCACAG | -0.0438
65 | ATTAGTGC | 0.0939
66 | TCAGGCGA | -0.0685
67 | GCTGGCAA | -0.156
68 | CACAGCGG | -0.21
69 | AATAGGGA | -0.301
70 | GAACAATA | 0.209
71 | CAGAAGAG | -0.0605
72 | ATTCCGTG | 0.0413
73 | ACTATCTA | 0.0641
74 | AAATTTGT | 0.148
75 | AGGAAGAT | -0.177

Row | Sequence | PBM E-score
76 | GAGAAGAC | 0.1
77 | CCGTCGCG | -0.171
78 | GGTGTTTA | -0.00142
79 | GAGCAAGA | -0.112
80 | CAGCCTCG | -0.191
81 | CCGAGAGG | -0.334
82 | GTTCGGGA | -0.0477
83 | CCTGCCCG | -0.0682
84 | AGAATGTG | 0.0848
85 | GTGAGATA | 0.133
86 | ATCCGAGC | -0.153
87 | CCACGAAG | -0.0986
88 | CCGTGCCG | -0.0237
89 | CTTTACCA | -0.0191
90 | AGACTAAA | 0.0518
91 | CACGCCAG | -0.122
92 | CGTACAAA | 0.317
93 | AGCGAAAG | -0.0867
94 | CATTATCA | 0.195
95 | ACCGCTAA | 0.0752
96 | AGACAATA | 0.0886
97 | GCGAGAGC | -0.0235
98 | AATTTAAT | 0.255
99 | CAAATGCA | 0.181
100 | AATTTGCT | 0.105

Row | Sequence | PBM E-score
101 | GCAAATGA | 0.06
102 | CGAAAGAG | 0.0363
103 | TAGTATGA | 0.284
104 | CCGAGCCA | -0.215
105 | CTCGGTCA | -0.126
106 | AAGTGATC | 0.112
107 | ATATTGGA | 0.0611
108 | TCAGGAAA | 0.00962
109 | GATTACGC | 0.425
110 | TAGTGGGA | -0.244
111 | ACCCGGGG | -0.156
112 | AGAGCGAG | -0.271
113 | CCTACGCC | -0.0487
114 | ACACACCA | 0.0755
115 | GTAGACGA | 0.232
116 | ATCACGCC | 0.0558
117 | GCATCATA | 0.366
118 | ACATAGGT | 0.136
119 | GACCAACA | 0.17
120 | ATAGAAGA | -0.0166
121 | TCATAGAA | 0.219
122 | GACGATAC | 0.253
123 | AGAGCCCC | -0.182
124 | ACACTTGA | -0.155
125 | CCACATAC | 0.198

Row | Sequence | PBM E-score
126 | GAAAGTAC | 0.127
127 | GGAGCGAA | -0.011
128 | ATGGCATC | 0.0693
129 | AGATTTCA | 0.121
130 | TATTAAGA | 0.118
131 | GTATTTGA | 0.109
132 | ATCTATTC | 0.0232
133 | CGTCGCAC | 0.00782
134 | ACGGGATG | -0.19
135 | CCTGTTCC | -0.251
136 | GGGTCACA | -0.256
137 | GGGCAGTA | -0.114
138 | CGGTACGC | 0.169
139 | CGCCATAA | 0.212
140 | GAGAACAC | 0.0313
141 | GAACCACA | -0.0623
142 | TCGAAGCA | -0.0359
143 | ACCCAGAT | -0.237
144 | ATAAGTCC | -0.046
145 | CGGACGTC | 0.292
146 | GACGTGAC | 0.432
147 | TACGGACA | -0.0266
148 | AGAATGTC | 0.196
149 | ATCTTGTA | 0.0963
150 | ACACAATA | 0.173

Row | Sequence | PBM E-score
151 | TAAGCCAA | -0.0203
152 | TACACGCA | 0.261
153 | GACAGTGA | 0.112
154 | GAAAGCGA | -0.059
155 | AACTGCTA | 0.059
156 | ACATCCAT | 0.0911
157 | GATCTAGA | -0.0151
158 | AACTAAGA | 0.178
159 | AGCCTCTG | -0.318
160 | CCCAAAGA | -0.106
161 | CAGGTGTC | -0.253
162 | CGCCAAAC | -0.158
163 | GAACCTAA | -0.0781
164 | GGAGGGAA | -0.391
165 | CAGACAGG | -0.208
166 | CCTATACC | -0.227
167 | AGATTGGA | -0.114
168 | GGCGATCA | -0.211
169 | GAAGATGC | -0.236
170 | AATACAAA | 0.224
171 | ACGCGGTG | 0.00049
172 | AAGGGCTG | -0.276

— the supplement of paper PMC3334620
